A word on the % Inhibition: it is the relative decrease from the control value, in per cent.

About 420 (8.8%) of roughly 4,800 compounds showed an effect of 50% or more. The list shows a part of the results.

In this test the test system is Plasmodium falciparum. Put plainly: Confirmatory screen in NF54 nanoGlo assay, in single point, at 2uM, 72h. Format: functional, Erythrocyte. Particulars: timepoint 72 hour.
`CCC(=O)N1CCC(Nc2cccc(-c3nc(C4CC4)n[nH]3)c2)CC1`: the “% Inhibition” value is -14%.

As to `Cc1ccc(-c2nc3ncccn3c2Nc2ccc3c(c2)OCCO3)o1`, the “% Inhibition” value is on record as -8%.

For `O=C(NCc1ccco1)c1nc(-c2ccncc2)cs1`, the “% Inhibition” value is 4%.

Consider `COc1ccc(C2=NN(C(C#N)c3cccc(OC)c3O)C(c3ccccc3)C2)cc1` (configuration not stated), for which the “% Inhibition” value is given as 4%.

As to `O=C(CN1CCOCC1)Nc1ccc(N2CCOCC2)c(F)c1`, the “% Inhibition” value is listed as -16%.

As to `C[C@@H](C(=O)N1CCN(C/C=C/c2ccccc2)CC1)N1Cc2ccccc2C1=O`, the “% Inhibition” value is given as -4%.

In the case of `CN(C)C(=O)NCC1(NC(=O)N(C)C)CCC1`, the “% Inhibition” value is on record as -3%.

With `CN(C)S(=O)(=O)N(CCN1CCCC1)[C@H]1CCN(C(=O)CCC2CCCC2)C1`, the “% Inhibition” value is 6%.

Take `O=S1(=O)CC[C@H](NS(=O)(=O)c2ccc3c(c2)OCCO3)C1`: the “% Inhibition” value is reported as -8%.

For the molecule `CCOC(=O)c1c(CN(C)C)n(-c2ccc(OC)cc2)c2ccc(Oc3nccc(Nc4ccc(C)cc4)c3C#N)cc12`, the “% Inhibition” value is recorded as -4%.

Turning to `COC(=O)c1nc(NC(=O)C2(C)CCCC2)sc1C(C)C`, the “% Inhibition” value is recorded as -12%.

As to `Cc1cc(=O)n2ncc(C(=O)NCc3cc(F)cc(F)c3)c2[nH]1`, the “% Inhibition” value is on record as -13%.

Regarding `CC(C)(C)OC(=O)NC1CCC(N2C(=O)CCC2=O)CC1` (configuration not stated), the “% Inhibition” value was -4%.

Consider `COc1ccc(F)c(NC(=O)N(CCO)C(C)C)c1`, for which the “% Inhibition” value was found to be 5%.

For the molecule `COC1(C)CC(NC(=O)C(C(C)C)N2CCCS2(=O)=O)C1(C)C` (configuration not stated), the “% Inhibition” value is reported as -9%.

Regarding `Cc1cc(NC(=O)CS(=O)(=O)Cc2c(C)noc2C)no1`, the “% Inhibition” value is -11%.

As for `CC(C)c1cccc(CN2C(=O)N[C@]3(CC(C)(C)OC3(C)C)C2=O)n1`, the “% Inhibition” value is listed as -6%.

On to `O=C(Cn1nnc2ccccc21)N(Cc1cccnc1)C1(C(=O)Nc2ccc3c(c2)OCO3)CCCCC1`, for which the “% Inhibition” value amounted to 4%.

Consider `COc1ccccc1OCc1nn2c([C@H]3CCCN(S(C)(=O)=O)C3)nnc2s1`, for which the “% Inhibition” value is listed as -3%.

Take `Cc1cc(C)c2ccc3ccccc3c2n1`: the “% Inhibition” value is -4%.

As for `Cn1c(N)c(S(=O)(=O)N2CCN(c3ccccc3Cl)CC2)c(=O)n(C)c1=O`, the “% Inhibition” value was 61%.

For `Cc1cc(S(=O)(=O)N(C)Cc2ccco2)cc2c1NC(=O)C2(C)C`, the “% Inhibition” value is reported as -2%.

On to `Cc1cc(C)nc(N[C@H](c2ccc(F)cc2)c2cc(C)sc2NC(=O)c2ccccc2)n1`, for which the “% Inhibition” value is 0%.

`O=C(C[C@@H]1CCNC[C@@H]1Cc1cc(COc2ccccc2)on1)NCc1ccc(F)cc1`: the “% Inhibition” value is -2%.

Consider `CCC(=O)N1CCN(S(=O)(=O)c2ccc(C)cc2)[C@H]1C`, for which the “% Inhibition” value is reported as -2%.

In the case of `CC(C)Cn1c(=O)c2sccc2n(CC(=O)N2CCCC2)c1=O`, the “% Inhibition” value is 6%.

In the case of `CCN(C(C)=O)c1ccc(Cl)cc1F`, the “% Inhibition” value is listed as -13%.

In the case of `Cc1n(CC(=O)c2ccccc2)c2ccccc2[n+]1CC(=O)c1ccccc1`, the “% Inhibition” value was found to be 68%.

As for `COC(=O)N1CC[C@H](NC(=O)OC(C)(C)C)C1`, the “% Inhibition” value is given as 0%.

On to `Cc1ccc(CN2CCN(CC(=O)NC3CCCCCCC3)C2=O)cc1`, for which the “% Inhibition” value was -8%.

On to `O=c1ccn2c(n1)O[C@H]1[C@H](OC3CCCCO3)[C@@H](COC3CCCCO3)O[C@H]12` (some centres not stated), for which the “% Inhibition” value is listed as -15%.

Take `CN(C)CCNCc1ccc(Cl)c(Cl)c1`: the “% Inhibition” value is recorded as -11%.

In the case of `CC(=O)N1CC[C@H](CC(=O)N(C)Cc2ccccc2)C1`, the “% Inhibition” value was -3%.

Take `CC(C)C(=O)NC1CCN(c2nc(Cc3ccc(F)cc3)no2)CC1`: the “% Inhibition” value is -3%.

On to `Cc1csc(C(C)(C)NC(=O)NCCC2=CCCC2)n1`, for which the “% Inhibition” value is listed as -3%.

Take `CCOc1ccc(NC(=O)N(Cc2cn(CC)c3ccccc23)[C@@H](C)CC)cc1`: the “% Inhibition” value was -14%.

In the case of `c1ccc(CC2CCN(c3[nH]cnc4ncnc3-4)CC2)cc1`, the “% Inhibition” value is on record as 4%.

Turning to `Cc1c(CCO)c(=O)n(-c2ccccc2)n1S(=O)(=O)c1c(Cl)cc(Cl)cc1Cl`, the “% Inhibition” value is on record as -7%.

On to `CC[n+]1c(C)sc2cc(-c3ccccc3)sc21`, for which the “% Inhibition” value is on record as -15%.

On to `CCC[C@@]1(C)C(=O)NCCN1Cc1nnc(-c2ccc(Cl)cc2)n1C`, for which the “% Inhibition” value is on record as -10%.

Consider `Cc1cc(CS(=O)(=O)N2CCC[C@H]2c2noc(C)n2)no1`, for which the “% Inhibition” value is reported as 4%.

`O=C(c1ccc2c(c1)OCO2)N1CCn2c1nc1ccccc12`: the “% Inhibition” value was 65%.

Consider `Cc1ccccc1Nc1nnc(-c2ccccc2)c(-c2ccccc2)n1`, for which the “% Inhibition” value is 3%.

As for `O=C(CC(F)(F)F)NCc1ccccn1`, the “% Inhibition” value was 1%.

As to `O=C(CN1CCCC1)N1CCCN(S(=O)(=O)c2ccccc2)[C@H]1c1ccccc1`, the “% Inhibition” value is -7%.

Consider `Cn1cc(-c2csc(NC(=O)c3ccc4[nH]cnc4c3)n2)cn1`, for which the “% Inhibition” value is 8%.

In the case of `COc1ccc2cc3n(c2c1)C[C@](C(=O)NC1CCCCCC1)(c1ccccc1)N(Cc1ccc(OC(C)C)cc1)C3=O`, the “% Inhibition” value was -14%.

For the molecule `CC1CCC2(C)c3[nH]c4ccccc4c3CCCN2C1=O` (configuration not stated), the “% Inhibition” value was -6%.

As for `C[C@@]1(C(N)=O)CCCCN1Cc1cncs1`, the “% Inhibition” value is on record as -3%.

As for `Cc1cnc(C)c(N2CCCN(c3cncc(F)c3)CC2)n1`, the “% Inhibition” value was -10%.

In the case of `COc1nscc1CN(C)C(=O)c1ccc2c(c1)C(C)(C)CO2`, the “% Inhibition” value is recorded as -11%.

With `Cn1c(=O)n(C)c2cc3c(cc21)NC(=O)CS3(=O)=O`, the “% Inhibition” value was 3%.

Source of the values: ChEMBL document CHEMBL4888484, “Replenishing the malaria drug discovery pipeline: Screening and hit evaluation of the MMV Hit Generation Library 1 (HGL1) against asexual blood stage Plasmodium falciparum ,using a nano luciferase reporter read-out” (2022).
